Values joined by “and” are separate entries in the source; they are usually repeats but may differ in a detail not shown here. Equal entries are not always repeated. The whole screen tested about 110,000 compounds, of which about 230 (0.21%) showed an effect of 50% or more. The list shows a part of the results.
Biological target: DPAP1 (Plasmodium falciparum, UniProt Q8IIJ9)
Test: primary screen, percent inhibition; read by cleavage of a fluorogenic dipeptide substrate; higher = more effect of the substance
Design: species or system P. falciparum D10 trophozoite lysates; single well
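Also: 30 min substrate incubation versus DMSO and 10 µM JCP410 controls.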

Chain of DPAP1 (Q8IIJ9 whole entry, looked up): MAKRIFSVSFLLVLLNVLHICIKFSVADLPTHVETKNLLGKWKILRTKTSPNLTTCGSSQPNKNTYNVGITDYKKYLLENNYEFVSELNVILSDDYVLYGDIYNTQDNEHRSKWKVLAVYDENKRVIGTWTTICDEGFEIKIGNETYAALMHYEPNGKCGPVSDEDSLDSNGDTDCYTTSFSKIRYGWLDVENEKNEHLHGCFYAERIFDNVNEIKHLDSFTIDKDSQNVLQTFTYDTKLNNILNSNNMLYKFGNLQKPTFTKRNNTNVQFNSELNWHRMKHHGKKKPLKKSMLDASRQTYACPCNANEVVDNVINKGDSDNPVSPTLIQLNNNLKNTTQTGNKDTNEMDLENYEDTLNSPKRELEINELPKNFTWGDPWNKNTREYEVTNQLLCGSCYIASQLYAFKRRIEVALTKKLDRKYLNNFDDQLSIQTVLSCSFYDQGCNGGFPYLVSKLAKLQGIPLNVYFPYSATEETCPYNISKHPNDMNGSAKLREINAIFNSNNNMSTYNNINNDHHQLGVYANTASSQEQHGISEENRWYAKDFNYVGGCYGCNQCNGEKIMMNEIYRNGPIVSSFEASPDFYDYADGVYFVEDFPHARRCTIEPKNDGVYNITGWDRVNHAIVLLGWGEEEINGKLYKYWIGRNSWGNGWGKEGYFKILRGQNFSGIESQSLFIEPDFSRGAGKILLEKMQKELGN

Structure (SMILES)	% Inhibition @ 10 uM
CCCCn1c(SCc2nc(N)nc(N3CCOCC3)n2)nc2c1c(=O)n(C)c(=O)n2C	11.2%
COc1ccc(N(CC(=O)N2CCOCC2)S(=O)(=O)c2ccc(C)cc2)c(OC)c1	-1.2%
Oc1cccc(CN2CCSCC2)c1	-0.192%
Cc1[nH]cnc1CN1CCc2ccccc2C1	1.74%
CCn1ncc(Br)c1C(=O)Nc1sc2c(c1C(N)=O)CCCC2	-6.79%
Cc1ccc2c(Sc3ccccc3)c(C(=O)O)[nH]c2c1	3.24%
CNC(=O)CN(c1cccc(OC)c1)S(=O)(=O)c1ccc(C)cc1	2.45%
CCOc1cc(/C=C2/NC(=O)N(Cc3ccccc3F)C2=O)c(Br)cc1O	3.27%
CCCCn1c(CNC(=O)Cc2ccccc2)nc2ccccc21	-4.86%
O=C(CCn1cnnn1)Nc1ccc(Cl)cn1	-1.96%
N=C1SCCN1CC(O)c1ccccc1 (stereo not drawn)	-11.1%
CCn1c(C(=O)N2CCC(C(=O)NCc3ccc(F)cc3)CC2)cc2sccc21	0.137%
CC(CCCC(C)(C)O)NC1C2CC3CC(C2)CC1C3 (stereo not drawn)	-1.82%
Cc1nc2c(C(=O)NCCC3=CCCCC3)cnn2c(C)c1Cc1ccccc1	1.27%
Nc1nonc1-c1noc(CCCCCN2C(=O)c3ccccc3C2=O)n1	-0.941%
CCOc1ccccc1C(=O)Nc1c2c(nn1-c1ccccc1C)CS(=O)(=O)C2	10.9%
COc1ccc(/N=C2/S/C(=C\c3ccc4c(c3)OCO4)C(=O)N2C)cc1	3.26%
Cc1onc(-c2ccccc2Cl)c1C(=O)NCc1ccc(S(N)(=O)=O)cc1	-5.71%
CC(C)Nc1nc2ccccc2c(=O)n1-c1ccc(Cl)cc1	-1.6%
Cc1ccc2c(c1)c1c(n2CC(O)CN2C(=O)CNC2=O)C(=O)CCC1 (stereo not drawn)	-2.78%
CN1C(=O)C(=Cc2ccc(-c3ccc(O)c(C(=O)O)c3)o2)C(=O)N(C)C1=O	30.2%
CCCC[n+]1cc(NC(=O)c2ccccc2Br)on1	1.62%
Cc1ccc(-c2nnc(SCC(=O)N3CCOCC3)o2)cc1	2.42%
CCOC(=O)N1CCC(Nc2nc(OC)nc(OC)n2)CC1	3.63%
CC(C)(C)c1c(Cl)c(O)c(-c2ccccc2)c(=O)n1-c1ccccc1	7.84%

Structure (SMILES)	% Inhibition @ 10 uM
COC(=O)c1c(N)n(-c2cccc(C(F)(F)F)c2)c2nc3ccccc3nc12	-3.41%
CC(C)CC(NC(=O)c1ccc(NC(=O)N2CCOCC2)cc1)C(=O)NCC#N (stereo not drawn)	9%
Cc1ccccc1C(=O)N[C@@H](CC(C)C)C(=O)NCC#N	-6.46%
CC1CC(N(C(=O)c2cccc(F)c2)c2ccccc2)c2ccccc2N1 (stereo not drawn)	-2%
CCOc1ccccc1N(CC(=O)Nc1cc(C)cc(C)c1)S(C)(=O)=O	4.11% and 4.44%
COC(=O)C1CC2=CC(=O)CCC2(C)C2C1C1CC[C@@]3(CCC(=O)O3)C1(C)C[C@H]2O (stereo partly drawn)	3.53%
CCC1CCCCN1CCCNC(=O)Cn1ncc2c3cc(C)ccc3nc-2c1O (stereo not drawn)	2.42%
O=C(COc1ccccc1)NCCc1ccccc1	5.09%
CCCOc1ccc(N2CC(C(=O)Nc3nccs3)CC2=O)cc1 (stereo not drawn)	-3.65%
CCOC(=O)C1=C(CNCC23CC4CC(CC(C4)C2)C3)NC(=O)NC1c1ccc2c(c1)OCO2 (stereo not drawn)	-2.63%
Cc1nn(CC(=O)N2CCN(c3ccccn3)CC2)c(=O)c2cc3sccc3n12	7.91%
CC1CC(C)CC(S(=O)(=O)N2CCC(C(=O)O)CC2)C1 (stereo not drawn)	-0.256%
Cc1nnc(C)c2c(C)n(C(c3ccccc3)c3ccccc3)c(C)c12	3.54%
COc1ccc(OC)c(C2NC(=O)N(C)C(C)=C2C(=O)OCc2ccccc2)c1 (stereo not drawn)	6.11%
COCCCN(C(=O)Nc1cccc(Cl)c1)C(C)c1ccccn1 (stereo not drawn)	5.24%
Cn1c(=O)c2c(nc(Br)n2Cc2ccccc2Cl)n(C)c1=O	5.09%
O=C(NC1CC1)c1cc(-c2ccc(Cl)cc2)nc2ccccc12	-0.69%
COc1ccc(-c2cc(C(=O)NC3CCCC3)no2)cc1OC	8.5%
COC(=O)C1=C(C)N(CC2CCCO2)C(=O)/C1=C\c1cc(C)n(-c2cc(C)cc(C)c2)c1C (stereo not drawn)	-3.86%
Cc1cc(C)c2c(n1)SCC(=O)N2Cc1ccc(C(=O)NCc2ccc(Cl)cc2)cc1	-4.78%
CCCNC(=O)Cn1ncc2c(C)n(Cc3ccc(C)cc3)c(C)c2c1=O	-2.17%
Cc1ccc(NC(=O)Cn2cnc3c2c(=O)n(C)c(=O)n3C)nc1	-1.36%
CCCc1cc(O)n2nc(NC(=O)c3cc(OC)c(OC)c(OC)c3)nc2n1	-3.08%
CCN1CC2=C(OC(N)=C(C#N)C2c2cccs2)/C(=C\c2cccs2)C1 (stereo not drawn)	5.23%
c1nc(N2CCCCC2)c2c3c(sc2n1)CCCC3	2.6%

Structure (SMILES)	% Inhibition @ 10 uM
COC(=O)C1=C(C)NC(=O)/C1=C\c1ccc2c(c1)OCCO2	3.32%
CCOc1cc(CN2CCN(CC)CC2)ccc1OC	-1.86%
N#C/C(=C\c1ccccc1F)c1nc(-c2cccs2)cs1	2.41%
O=C(c1cc2c(Cl)nc3ccccc3c2s1)N1CCOCC1	3.33%
Cc1cccc(C(=O)Nc2ccc(NC(=O)c3cccc(C)c3)cc2)c1	3.64%
COc1ccc(-c2nc3s/c(=C\c4ccc(-c5ccc(C(C)=O)cc5)o4)c(=O)n3n2)cc1OC	-2.98%
CCC1SC2=NC(C)=C(C(=O)OCCOC)C(c3ccccc3)N2C1=O (stereo not drawn)	3.87%
O=C(Cn1c(C(F)(F)F)nc2ccccc21)NCCN1CCOCC1	1.28%
Cc1nnc2n1NC(c1ccc(Cl)cc1)C(C(=O)NCc1ccco1)S2 (stereo not drawn)	1.72%
Cc1nn(CCCC(=O)NC(C)c2ccccc2)c(=O)c2c1sc1ccccc12 (stereo not drawn)	-3.43%
CO/C(O)=C1/C(C)=NC2=C(C(=O)CCC2)C1c1ccccc1 (stereo not drawn)	5.01%
COc1ccccc1C1N(c2cc(C)on2)C(=O)C2CCCN21 (stereo not drawn)	-0.499%
NS(=O)(=O)c1ccc(NC(=O)CN2C(=O)c3cccc4cccc(c34)C2=O)cc1	5.97%
CC(C)(C)c1ccc(C(=O)N2CCC3(CC2)N=C(c2ccccc2)C(=O)N3)cc1	-0.808%
Cc1ccc2nc(NC(=O)C3CC3c3ccccc3)sc2c1 (stereo not drawn)	1.67%
COCCNC(=O)c1sc2ncn(CC(=O)N3CCC(C)CC3)c(=O)c2c1C	-2.17%
CSc1nc2sc3c(c2c(=O)n1C)CCCC3	-0.267%
COc1ccc(OC)c(CCNC(=O)CSc2nnc(C)c3c(C)n(-c4ccccc4)nc23)c1	-5.71%
COc1ccc(N/C=C(/C#N)c2nc(-c3ccc(-c4ccccc4)cc3)cs2)cc1	0.62%
CC1CCCCN1C(=O)c1ccc(COc2ccccc2Br)cc1 (stereo not drawn)	3.72%
CC1=C(C(=O)Nc2ccccc2)C2(CCCCC2)C(C#N)=C(SCC(N)=O)N1	12.6%
CC(C)C[C@H](NC(=O)C1CCNCC1)C(=O)N[C@@H](CCc1ccccc1)C(=O)COc1ccccc1	2.04%
CC(C)NC(=O)CSCc1csc2c1CCCC2	-2.15%
O/N=C/C(=N/O)c1ccc(Br)cc1	-1.69%
COc1cc(C)cc2oc(=O)c(CC(=O)NCc3ccc(Cl)cc3)c(C)c12	-2.57%

Structure (SMILES)	% Inhibition @ 10 uM
Cc1nc(C)c(C(=O)NCCc2nc3ccccc3[nH]2)s1	2.41%
O=C(O)CNCCC(O)c1ccccc1 (stereo not drawn)	-3.96%
COc1ccc(S(=O)(=O)Nc2ccccc2NS(=O)(=O)c2ccc(OC)cc2)cc1	-5.37%
O=C(Nc1nc2ccccc2s1)c1cc2ccc3cccnc3c2[nH]1	-3.28%
CC(C)=CCC/C(C)=C/CN1CCCC(C(N)=O)C1 (stereo not drawn)	1.38%
Cc1cccc(NC(=O)COc2ccc(C(C)C)cc2)c1	2.59%
Cn1c(=O)c2c3c(sc2n2c(SCC(=O)c4ccc(Br)cc4)nnc12)CCC3	-0.178%
COc1ccc2c(c1)OC/C(=C\c1ccc(C)cc1)C2=O	5.55%
CCOc1ccc(/C=C2N=C(/C=C/c3ccc(Cl)cc3)OC/2=O)cc1	1.61%
c1ccc(Nc2nc3ccccc3c3ccccc23)cc1	-0.856%
COc1ccc(Sc2ccc(C=C3C(=O)NC(=O)NC3=O)o2)cc1	4.74%
Cc1ccsc1CCNC(=O)c1cc(S(=O)(=O)N2CCCCC2)c[nH]1	-6.56%
CC(C)c1ccccc1OCC(=O)Nc1ccc(S(=O)(=O)N2CCOCC2)cc1	-1.44%
COc1ccc(C2C(C#N)=C(N)Oc3[nH]nc(C)c32)cc1COc1ccccc1Br (stereo not drawn)	0.687%
O=C1NCCN/C1=C\C(=O)c1ccc(F)cc1	0.279%
N#CC1=C(N)Oc2c(c(O)nc3ccccc23)C1c1cncc(-c2ccc(F)cc2)c1 (stereo not drawn)	22.7%
C=CCN1C(=O)N/C(=C/c2ccc(-c3cccc(C(F)(F)F)c3)o2)C1=O	11.5%
O=C1C2CC=C(Cl)CC2C(=O)N1CCC[n+]1cccc2ccccc21 (stereo not drawn)	5.3%
CCOC(=O)c1c(C)n(C)c2ccc(OCC(O)CN(CC)CC)cc12 (stereo not drawn)	2.1%
CC(C)NS(=O)(=O)c1ccc(-c2ccc(O)nn2)o1	-3.28%
COC(=O)c1nnn(-c2ccccc2)c1N	5.27%
CCN(CC)Cc1c(O)ccc2c(=O)c(Oc3ccccc3Br)coc12	4.86%
COc1ccc(/C=C(\C#N)C(=O)NCc2ccc(F)cc2)c(OC)c1OC	-11.9%
Cc1cc(C)c2nc(N3CCC(C(=O)NCCc4c[nH]c5ccccc45)CC3)sc2c1	-5.19%

Reference: publication PMC6919601, “Identification of Plasmodium dipeptidyl aminopeptidase allosteric inhibitors by high throughput screening” (PLoS ONE, 2019)
